Source: the antibiotic and cytotoxicity screens of Wong et al. (2023)
Some of the results follow.

How the values were obtained:
HSkMC = human skeletal muscle cells; test: cytotoxicity call (relative viability < 0.9); conditions: 10 µM
HepG2 = test: cytotoxicity call (relative viability < 0.9); conditions: 10 µM
S. aureus RN4220 = test: growth inhibition call (relative growth <= 0.2); conditions: 50 µM

| Compound | cytotoxicity call (HSkMC) | cytotoxicity call (HepG2) | growth inhibition call (S. aureus RN4220) |
| --- | --- | --- | --- |
| C[C@@H]1CN([C@@H](C)CO)C(=O)c2cc(NC(=O)Cc3ccccc3)ccc2O[C@H]1CN(C)C(=O)Nc1cccc2ccccc12 | inactive | inactive | inactive |
| C[C@@H]1CN([C@@H](C)CO)C(=O)c2cc(NC(=O)CCN3CCOCC3)ccc2O[C@@H]1CN(C)C(=O)Nc1ccc2c(c1)OCO2 | inactive | active | inactive |
| COc1ccc(S(=O)(=O)N[C@@H]2CC[C@H](CCNC(=O)CN3CCOCC3)O[C@@H]2CO)cc1 | inactive | inactive | inactive |
| CC(=O)NCCCC[C@@H]1NC(=O)[C@@H]2C[C@H](C(=O)NCCCCCCN(C)C)[C@H](c3ccc(O)cc3)N2C1=O | inactive | inactive | inactive |
| C[C@@H]1CCCCO[C@H](CN(C)S(=O)(=O)c2ccc(F)cc2)[C@H](C)CN([C@@H](C)CO)C(=O)c2cc(NC(=O)Cc3ccccc3)ccc2O1 | inactive | inactive | inactive |
| CN(C)N=Nc1[nH]cnc1C(N)=O | inactive | inactive | inactive |
| C[C@@H]1CN([C@@H](C)CO)C(=O)c2ccccc2-c2ccccc2CO[C@@H]1CN(C)S(=O)(=O)c1ccc(C(F)(F)F)cc1 | inactive | inactive | inactive |
| COCCC(=O)N1C[C@H]2CN(c3cnn(C)c3)C(=O)[C@@H]2C1 | inactive | inactive | inactive |
| C[C@H](CO)N1C[C@H](C)[C@H](CN(C)Cc2ccncc2)OCCCC[C@H](C)Oc2ccc(NC(=O)CCC(F)(F)F)cc2C1=O | inactive | inactive | inactive |
| C[C@@H]1COC(=O)[C@H](Cc2ccc(F)cc2)CC=CC[C@H](CC(=O)N(CCO)Cc2ccccc2)C(=O)N1 | inactive | inactive | inactive |
| C[C@@H]1CCCCO[C@@H](CN(C)C(=O)Nc2ccc3c(c2)OCO3)[C@@H](C)CN([C@@H](C)CO)C(=O)c2cc(NC(=O)Nc3cccc4ccccc34)ccc2O1 | inactive | inactive | inactive |
| CS(=O)(=O)Nc1ccc2c(c1)[C@H]1C[C@@H](CC(=O)NCC3CC3)O[C@@H](CO)[C@H]1O2 | inactive | inactive | inactive |
| Cn1cnc(=O)c2ccccc21 | inactive | inactive | inactive |
| C[C@@H]1CN([C@H](C)CO)C(=O)CCCn2cc(nn2)CO[C@@H]1CN(C)S(=O)(=O)c1ccc(Oc2ccccc2)nc1 | inactive | inactive | inactive |
| C[C@@H]1CN([C@H](C)CO)C(=O)c2cc(NS(=O)(=O)c3cccs3)ccc2O[C@@H](C)CCCCO[C@H]1CN(C)C(=O)Nc1ccc(F)cc1 | inactive | inactive | inactive |
| C[C@@H]1CN([C@H](C)CO)C(=O)c2cc(NC(=O)NC3CCCCC3)ccc2O[C@@H](C)CCCCO[C@H]1CN(C)C(=O)Nc1ccc2c(c1)OCO2 | inactive | inactive | inactive |
| Nc1nnc(C(=O)c2ccccc2N)s1 | inactive | inactive | inactive |
| C[C@@H]1CN([C@H](C)CO)C(=O)Cc2cc(NC(=O)Cn3cnnn3)ccc2O[C@@H]1CN(C)C(=O)Nc1ccc(C(F)(F)F)cc1 | inactive | inactive | inactive |
| C[C@@H]1CN([C@@H](C)CO)C(=O)CCCn2cc(nn2)CO[C@H]1CN(C)S(=O)(=O)c1ccc(C#N)cc1 | inactive | inactive | inactive |
| CC(C)(C)c1csc(-c2ccc(OC(F)(F)F)cc2)n1 | inactive | inactive | inactive |
| C[C@H](CO)N1C[C@H](C)[C@H](CN(C)C(=O)Nc2ccccc2)OCCCC[C@H](C)Oc2ccc(NC(=O)Nc3cccc4ccccc34)cc2C1=O | inactive | inactive | inactive |
| C[C@@H]1CCCCO[C@@H](CN(C)Cc2ccc(C(F)(F)F)cc2)[C@@H](C)CN([C@@H](C)CO)C(=O)c2cc(NC(=O)NC3CCCCC3)ccc2O1 | active | active | inactive |
| CCCCC[C@H]1C[C@H](O[C@H]2O[C@@H](CO)[C@@H](O)[C@@H](O)[C@@H]2O)CC(=O)O1 | inactive | inactive | inactive |
| COc1ccc(NC(=O)N(C)C[C@@H]2Oc3ccc(NC(=O)CCN4CCOCC4)cc3C(=O)N([C@H](C)CO)C[C@H]2C)cc1 | inactive | inactive | inactive |
| Cc1ccc(S(=O)(=O)N(C)C[C@@H]2Oc3cc(Br)ccc3S(=O)(=O)N([C@@H](C)CO)C[C@H]2C)cc1 | inactive | inactive | inactive |
| C[C@@H]1CN([C@H](C)CO)C(=O)c2cccc(NC(=O)Nc3ccc(C(F)(F)F)cc3)c2O[C@H]1CN(C)Cc1ccc(C(F)(F)F)cc1 | inactive | active | inactive |
